From patent US20240132582A1 come the findings set out here.

Assay [1] addresses mixture of hu-IL-36α, hu-IL-36β and hu-IL-36γ. Briefly: cell-based or functional assay.
Assay [2] addresses mixture of hu-IL-36α and hu-IL-36β. Briefly: cell-based or functional assay.

B1: mAb2.10/mAb6_2.7 multispecific common light chain antibody (bispecific antibody, human IgG1, lambda)
heavy 1: ELQLQESGPGLVKPSETLSLTCTVSGGSISDSSYYWGWIRQPPGKGLEWIGSIYYTGETYYAPSLKSRVTISVDTSKNQFSLKLSSVTAADTAVYYCARVRYGVGVPRHFDPWGQGTLVTVSSASTKGPSVFPLAPSSKSTSGGTAALGCLVKDYFPEPVTVSWNSGALTSGVHTFPAVLQSSGLYSLSSVVTVPSSSLGTQTYICNVNHKPSNTKVDKKV[human IgG1 Fc with changes cut from this listing]
heavy 2: ELQLQESGPGLVKPSETLSLTCTVSGGSITASNTYWGWIRQPPGKGLEWIGSIDYTGSTYYNPSLKSRVTISVDTSKNQFSLKLSSVTAADTAVYYCATGKYYETYLGFDVWGQGTLVTVSS[human IgG1 constant region with N297G T366W (EU numbers) cut from this listing]
light: ESVLTQPPSVSGAPGQRVTISCTGSSSNIGAHYDVHWYQQLPGTAPKLLIYGNDNRPSGVPDRFSGSKSGTSASLAITGLQAEDEADYYCQSYDYSLSGYVFGGGTKLTVLGQPKAAPSVTLFPPSSEELQANKATLVCLISDFYPGAVTVAWKADSSPVKAGVETTTPSKQSNNKYAASSYLSLTPEQWKSHKSYSCQVTHEGSTVEKTVAPTECS
As to B1, the IC50, IL-8 secretion by primary adult human keratinocytes stimulated by a mixture of hu-IL-36α, hu-IL-36β and hu-IL-36γ in assay [1] amounted to 1.16 nM. Moreover, the IC50, IL-8 secretion by primary adult human keratinocytes stimulated by a mixture of hu-IL-36α and hu-IL-36β in assay [2] amounted to 0.44 nM.
